Source: the supplement of paper PMC3334620
Whole data set: some 33,000 sequences, median “E-score (-0.5 to 0.5)” near -0.036, cut for the highest 2% near 0.37. Some of the results follow.

molecular target: T1, Yer064c (UniProt P40041); assay: PBM E-score (8-mer binding enrichment) (E-score (-0.5 to 0.5)); higher = stronger / more preferred TF binding; most listed sequences are background and not binding sites; details: protein concentration: 200 nM; construct: GST-full length
T1 sequence: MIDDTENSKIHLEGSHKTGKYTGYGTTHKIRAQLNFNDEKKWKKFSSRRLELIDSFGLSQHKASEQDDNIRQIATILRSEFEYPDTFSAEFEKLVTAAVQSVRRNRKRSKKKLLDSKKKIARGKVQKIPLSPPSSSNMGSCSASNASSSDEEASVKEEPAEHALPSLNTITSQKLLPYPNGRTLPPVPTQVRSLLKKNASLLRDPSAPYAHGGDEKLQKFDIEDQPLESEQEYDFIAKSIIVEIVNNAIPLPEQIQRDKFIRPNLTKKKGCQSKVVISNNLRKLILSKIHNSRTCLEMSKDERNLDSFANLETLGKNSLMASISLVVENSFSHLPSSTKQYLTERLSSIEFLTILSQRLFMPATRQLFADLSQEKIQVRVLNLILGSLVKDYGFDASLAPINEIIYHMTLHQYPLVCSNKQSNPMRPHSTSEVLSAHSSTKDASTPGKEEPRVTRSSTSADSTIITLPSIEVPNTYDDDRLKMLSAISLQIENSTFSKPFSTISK
Outline: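 Yeast transcription factors carrying a GST tag, as full-length proteins or DNA-binding domains, were produced by PURExpress in vitro transcription/translation. About 100-200 nM protein was applied to universal all-10-mer Agilent arrays, double-stranded by primer extension on fresh or once-stripped slides. Bound protein was detected with fluorescent anti-GST, and scans were normalised with masliner. The Universal PBM Analysis Suite gave each ungapped eight-base word, pooled with its reverse complement, an E-score, a modified Wilcoxon-Mann-Whitney statistic.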

Point of comparison: ACACACTC, “PBM E-score” value 0.125. Against it:
- ACTGACGG — lower, 0.00341
- ACTCCCTC — lower, 0.095
- GACGCATA — lower, -0.182
- AACGCCTA — lower, -0.228
- CATGAATA — higher, 0.178
- AAGTGTGG — lower, -0.0229
- CATCGACA — lower, -0.0949
- ATCACACA — higher, 0.191
- CGGGAACG — lower, -0.246
- ACCCCGAG — lower, -0.055
- GGAGCGGA — lower, -0.193
- AGGCCTGC — lower, -0.27
- AGTCCTCG — higher, 0.334
- ATAGTAAA — higher, 0.148
- TGATCAAA — higher, 0.169
- CAACCCGG — lower, -0.105
- GAAATAGC — lower, -0.0517
- CTGCGGCA — lower, -0.106
- CGTTACCC — lower, -0.184
- CCAGTCAC — higher, 0.313
- AACCGCCA — higher, 0.158
- GTTTCAGA — lower, -0.00444
- GACGTACA — lower, 0.027
- AGAGAGTC — higher, 0.409
- AGCGAGCC — lower, -0.0928
- ACCCAAGA — lower, -0.0549
- CCGTCGGC — lower, -0.207
- AAAATTGC — lower, -0.223
- GTGGGAGA — lower, -0.113
- CGACCGAG — lower, -0.0331
- CAACTTGC — lower, -0.189
- CAATGGTG — lower, -0.177
- ATGGTTCC — higher, 0.259
- CATCGAGA — lower, -0.111
- CGCGCACA — lower, -0.147
- AAAATGTC — lower, -0.0682
- AGCTCTGG — lower, -0.0975
- ATGCTAAC — lower, -0.0148
- ACTCCGAC — higher, 0.306
- AGACCGCT — lower, -0.172
- CCACCTAA — lower, -0.0468
- ACGGGTGG — lower, -0.122
- CATAACAA — lower, 0.108
- CTCAGAAG — lower, 0.0956
- AACGGAGC — lower, -0.277
- CCCCGTAC — lower, -0.256
- GGCTGCCA — lower, -0.218
- AAGTCACT — higher, 0.399
- CACACGTC — lower, -0.166
- CAGATGTC — lower, -0.101
- ACTCCCGG — lower, -0.0371
- CCTCCCTA — lower, -0.208
- CTCAGCTC — lower, 0.0515
- GATGGAGA — lower, -0.117
- ATGACAGC — lower, 0.0213
- GAGGAAGC — lower, -0.263
- CTTTAAGC — higher, 0.211
- CTCGATCC — lower, -0.0538
- ACGGGGCC — lower, -0.327
- CTCTACCC — lower, -0.0358
- GGGAACAC — lower, -0.0597
- AAGATCTC — lower, 0.0394
- AATACTAG — lower, -0.00028
- CGACCAAC — lower, -0.186
- AGACACCG — lower, 0.11
- TCATCAGA — higher, 0.259
- ACCCATGC — higher, 0.155
- GGTGGTAC — lower, -0.292
- AACCAACG — lower, -0.128
- TATTTCGA — higher, 0.137
- GGTGAGTA — higher, 0.333
- AGCAGCGC — lower, -0.221
- AGTAGCAA — lower, -0.0676
- CAAAACCC — lower, -0.114
- CACTCATC — higher, 0.258
- CCAGCGTC — lower, -0.408
- AGACCCAA — lower, -0.134
- CGCGCCAC — lower, -0.14
- GTGCGAAA — lower, -0.0762
- GTGGAAAA — lower, -0.075
- AGACCACG — lower, -0.09
- AAACAAGA — lower, -0.0226
- AGGACTTC — higher, 0.201
- CATCTTCG — lower, 0.0463
- GTCACTGA — higher, 0.166
- ACATGCCT — lower, -0.044
- ATTTCACA — lower, -0.019
- ATTCTGAG — higher, 0.224
- TATTGTCA — lower, -0.027
- ACCGCCGA — lower, -0.032
- CTTACAAA — higher, 0.171
- CGCGATCC — lower, -0.0433
- GAGATCCA — lower, -0.167
- GACAATGC — lower, -0.229
- ACACGAAA — lower, -0.114
- ACGGTGCG — lower, -0.0974
- GTCAATTA — lower, 0.123
- TAGTTATA — lower, -0.0161
- AGAGATTC — higher, 0.135
- GGCAACAA — lower, -0.026
- AATTCCGA — lower, -0.0643
- AGATCTGG — lower, -0.211
- AACAAGCG — lower, -0.114
- TACACAGA — lower, 0.061
- CCTTACAC — lower, 0.0696
- TACCGAAA — lower, -0.0607
- AAGAAGCT — lower, 0.0165
- ATGCTTAG — the same, 0.125
- CTTAGCGA — higher, 0.151
- GCGTTGCC — lower, -0.252
- AGCGCCTG — lower, -0.164
- ACTTACAC — higher, 0.127
- GACCATTA — lower, 0.0954
- AATGAGTC — higher, 0.485
- CAATGTCG — lower, -0.14
- GGACGCCA — lower, -0.264
- CATAGGGG — lower, -0.149
- GCCGACCA — lower, -0.169
- AGACTACT — higher, 0.376
- ACAAATGA — higher, 0.148
- AGGTAAGG — lower, -0.188
- CGAGCCGC — lower, -0.00093
- ATCCTAAC — lower, 0.0458
- AGAGACAA — lower, -0.175
- TGAGCTAA — higher, 0.189
- CAAACTCC — lower, 0.12
- GATAGGCA — lower, -0.15
- GGAGCTAA — lower, -0.114
- AACATGGT — lower, 0.0458
- GAACTGGA — lower, -0.0938
- TATGAAAA — higher, 0.133
- ATGGTCAG — higher, 0.202
- CGCGTGAA — lower, 0.00596
- AGGATTAA — higher, 0.253
- GACTTGAC — higher, 0.306
- CCCTGTCC — lower, -0.398
- AATGAAGC — lower, -0.191
- CCGTCTTA — lower, -0.154
- CGAATGTA — lower, -0.152
- AATCGCTG — lower, 0.0806
- ATGTAATC — higher, 0.291
- GCGGCAAA — lower, -0.171
- AATCCCCC — lower, -0.24
- CTGCAAAC — lower, -0.0903
- CGCCATTA — lower, -0.088
- CAGCAAGA — lower, -0.11
- CAATATTA — lower, 0.0677
- CTCCTAAA — lower, -0.068
- TAGGAAAA — lower, -0.0846
- ACCGCTTA — lower, 0.0807
- AAGCTCGG — lower, -0.0949
- AGAGCTGA — lower, 0.0408
- AGAGATTG — lower, -0.195
- ATTGTTCC — lower, -0.0204
- AGTCGGCA — higher, 0.3
- GCGCAGCC — lower, -0.302
- AGGCGGAG — lower, -0.108
- ATATAGAT — lower, 0.101
- GTCGTGTA — lower, 0.0966
- AACCCACG — lower, -0.128
- CACCCCAG — lower, -0.0194
- AGGTTGGG — lower, -0.146
- AATCCACA — lower, -0.0102
- CCGTCAAC — lower, -0.194
- AATATCCA — lower, 0.0202
- AGTATGAC — higher, 0.265
- TCACCCCA — higher, 0.228
- GCGATGAC — higher, 0.172
- GAGTGGAC — lower, -0.00734
- AAAATGTG — higher, 0.129
- CCGTGATA — lower, -0.151
